From the RNAGym collection of RNA variant scans (doi:10.7554/elife.90254)
The source gives no read counts; variants with many changes may rest on few reads.

B1: LINE1-mini (parent)
chain: GGCAGAGCUCAACACAGCGUGGCAAAGUGGCUGUGGCUAGACUGCC

Variants of: B1
Assay: self-cleavage, relative activity (ratio to wild type); higher = more cleavage; in vitro, sequencing; the parent is a self-cleaving ribozyme

Variant | self-cleavage
GGCAUAGCUCUACACAGCGUGACCAAGUGGCUGUGGCUUGAUGGCC [G5U A11U G22A A24C A39U C42U U43G] | 0
CGCAGAGCUCAACACAACGUGGAAAAGUGGCUGUGGCUAGACUGGC [G1C G17A C23A C45G] | 0.04
GGCGGAGCUCAGCACAGCUUGGCAAAGUGGUUGCGACUAGACAGCC [A4G A12G G19U C31U U34C G36A U43A] | 0.02
GGAAGAGCUCAACACAGCGUGGCAAAGUGGCGGUGGCUCGACUGCC [C3A U32G A39C] | 0.05
GGCAGAGCUCAACACAGCGUGACAAAGGGGCUGUGGCUAUACUGCA [G22A U28G G40U C46A] | 0.23
GGCAGAGUUCAACACAGCGUGGCACAGUGGCUCUGGCUAGACUGCC [C8U A25C G33C] | 0.03
GGCAGAGCUCAACAAAGCCUGGCAAAGUGGCUGCGGCUAGACUGUC [C15A G19C U34C C45U] | 0.04
GACAGAGCUCAACACAGCGUGGCAAGUUGGCUGUGGCUAGGCUGCC [G2A A26G G27U A41G] | 0.25
GGCAGAGCUCAACACAGCGCGGCAAACCGGCUGUGGCUAGACUGCC [U20C G27C U28C] | 0.12
GGCAGAGUUUAACACAGCGUGGCAAAGGGGCUGUGUCUAGACUGCC [C8U C10U U28G G36U] | 0.01
GGCAGAGGUCAACACAGCGUGUCAAAGUGGCCUUGGCUAGACUGCC [C8G G22U U32C G33U] | 0.11
GGCAGAGCUCAACACAGCGUGGCAAAGAGGCCGUGGCUAGACUGCG [U28A U32C C46G] | 0.12
GGCAGUGCUCAACACAGCGUUGCAAAGUGGCUGGGGCUAGACUGAC [A6U G21U U34G C45A] | 0.02
GGCAGAGCUCAACACAGCGUGGGAAAGUGGCUGUGUCUAGACUACA [C23G G36U G44A C46A] | 0.06
GGCAGAGCUCAACACCGCGUGGCAAAGUGGCUGUGGCAAGUCUGCC [A16C U38A A41U] | 0.03
GGCAGAGGUCAACACAGCGUUGCAAAGUGGUUGUGGCUAGACUGCC [C8G G21U C31U] | 0.22
GGCAGAGCUCAACACAGCGUGUCAAAGUGGCGGUGGUUAGACUGCC [G22U U32G C37U] | 0.02
GGCAGAGCUCAACACAUCGUGACAGAGUGGCUGUGGCUAGACUGCC [G17U G22A A25G] | 0.04
GGCAGAGCUCAACACAGCGUGGCAAAUUCGCUGUGGCUAGGCUGCC [G27U G29C A41G] | 0.23

Variant | self-cleavage
GGUAGAGCUCAACACAGGGUGGCAAAGUGGCUGUGGCUAGAUUGCC [C3U C18G C42U] | 0.04
GGCAGAGCUCAACACAGCGUUGCAAAGAGGCUGUGGCUAGUCUGCC [G21U U28A A41U] | 0.27
GUCAGAGCUAUACACCGCGUGGCAAAUUGGCUGUGGCUAGACUGCC [G2U C10A A11U A16C G27U] | 0
GGCAGAGCGCAACGCAGCGAGGCAAAGUGGCUGUGGCUAGACUGCC [U9G A14G U20A] | 0.03
GGCAGAUCUCAACACAGCGUGCCAAAGUGGCUCUGGCUAGACUGCC [G7U G22C G33C] | 0.02
GGUAGAGCUCAACACAGCGUGGUAAAGUGGCUGUGGCGAGACUGCC [C3U C23U U38G] | 0.03
GGCAGAGCUCAACACAGCGCGGCAAACUGGGUGUGGCUAGACUGCG [U20C G27C C31G C46G] | 0.01
UGCAGAGCUCAACACAGCGUGGCAAAGUGGCUGUGGAUAGACGGCA [G1U C37A U43G C46A] | 0.04
GGUAGAGCUCAACACAGCGUGCCAAAGUGGUUGUAGCUAGAUUGCC [C3U G22C C31U G35A C42U] | 0.01
GGCAGAGCUCAACGCAGCGUGGCAAAGUAGAUGUGGCUCGACUGCC [A14G G29A C31A A39C] | 0.08
GGCACAGCUCAACACAGAGGGGCAAAGUGGCUGUGGCUAGACUGCC [G5C C18A U20G] | 0.02
GUGAGAGCUCAACACGGCGUGGCAAAGUGGCUGUGGCUAGACUGCC [G2U C3G A16G] | 0.02
UGCAGUGCUCAACACAGCGUGCCAAGGUGGCUGUGGCUAGACUGCC [G1U A6U G22C A26G] | 0.21
GCCAAAGCUCAGCACAGCGUGAAAAAGUGGCUGUGGCUAGACUGCC [G2C G5A A12G G22A C23A] | 0.02
GGCAGAGCUCAACACAGCGUGGCAAAGUGGCUGCGUCUAGACUGAC [U34C G36U C45A] | 0.01
GGCAGAGAUCAACACAGCGUGGCAAAGUGGGUGAGACUGGACUGCC [C8A C31G U34A G36A A39G] | 0.03
GGCAGAGCUCAACAGAGCGUGGCAAAGUGCCUGUUGCUAGACUGCC [C15G G30C G35U] | 0.04
UGCAGAGCUAAACAUGGCGUGGCAAGGUGGCUGUGGCUAGACUGCC [G1U C10A C15U A16G A26G] | 0.01
GGCUGAGCUCAACACAGGGUCGUAAAGUGGCUGUGGCUAGACUGCC [A4U C18G G21C C23U] | 0.12

Variant | self-cleavage
GGCAGAGCUCAACACUGCGUGUCAAAGUACCUGUGGCUAGACUGCC [A16U G22U G29A G30C] | 0.33
GGCAGAGCUCAACAAAGCGUGGCAAAUAGGCUGUGGCUAGACUGCC [C15A G27U U28A] | 0.31
GGCAUAGCUCAACACAGCGUGGCAUAAUGGCUGUGGCUAGACUGCC [G5U A25U G27A] | 0.06
GGCAGAGCUCACCACAGUGUGGCAAAGUGGCCAUGGCUAGACUGCA [A12C C18U U32C G33A C46A] | 0.01
GGUAGAGCUCAACACAGCGUGGCAAUGUGGCUGGGGCAAGACUGCC [C3U A26U U34G U38A] | 0.02
UGCAGAGCUCAACACAGCGUGGCAAAGUGGCUGGGGCACUACUGCC [G1U U34G U38A A39C G40U] | 0.01
UGCAGAGCUCCACACAGCGUGGCAAAGUGGGUGUGGCUAGACUGCC [G1U A11C C31G] | 0
GGGCGAGCACAACACAGCGUUGCACAGUGGCUGUGGCUAGACUGCC [C3G A4C U9A G21U A25C] | 0.02
UGCAGAGCUUAACACACCGUGGCAAAGUGGCUGAGGCUAGACUGCC [G1U C10U G17C U34A] | 0.11
GGCAGAGUUCAACACAGCGUGGCGAAGUGGAUGUGGCUUGACUGCC [C8U A24G C31A A39U] | 0.32
GGCAGAGCUCAACAGAGCGUGGCAAAGUGUCUGUGGCUAGACUUUC [C15G G30U G44U C45U] | 0.04
GGCAGAGCUCAACACAGUGUGGCAAAGUGGCUGCGGCUAAACUGCC [C18U U34C G40A] | 0.02
GGCAGAACUCAACACAGCGUGGCAAAGUGACUGUGGCUAUACUGCC [G7A G30A G40U] | 0.42
GGCAAAGCUCAACACAGCGUGCCAAGGUGUCUGUGGCUAGACUGCC [G5A G22C A26G G30U] | 0.02
GCCAGGGCUCAACACAGCGUGGCAAAGUGGCUGUGGUUAGACUGCC [G2C A6G C37U] | 0.04
GGCAGAGCUAAACACAGAGUGGCAAAGUGGCUGUGGCUAGACUGUC [C10A C18A C45U] | 0.01
GGCAGAGAUCAACACAGCGUGGAAAAGUGGCUGAGGAUAGACUGCC [C8A C23A U34A C37A] | 0.03
AGCAGAGCUCAACACAGUCUGGCAAAGUGGCUGUGGCUAGACUGCC [G1A C18U G19C] | 0.11
